From PMC4415790
Changes are numbered by the printed parent chain. Names and notes keep the numbering of the source. These are yes or no findings as the source states them, for the method shown. Binding seen in cells or lysates may run through a third protein. Some entries that bind do so weakly or less than the wild type. Where a sequence is shown, tags or fusion partners need not be part of it. Each block holds one binder with its values, some of them ahead of it.

Columns and labels:
[1] = biological target: T1, URT1-GFP (UTP: RNA uridylyltransferase, 35S-URT1-GFP) (Arabidopsis thaliana) (UniProt O64642); assay: co-IP; S6D Fig; URT1-GFP with 10xMYC-AGO1 or 10xMYC-DCL3 (aa1-280); with treatment of RNAse A (50 μg/ml); which beads were used is not told
T1 sequence: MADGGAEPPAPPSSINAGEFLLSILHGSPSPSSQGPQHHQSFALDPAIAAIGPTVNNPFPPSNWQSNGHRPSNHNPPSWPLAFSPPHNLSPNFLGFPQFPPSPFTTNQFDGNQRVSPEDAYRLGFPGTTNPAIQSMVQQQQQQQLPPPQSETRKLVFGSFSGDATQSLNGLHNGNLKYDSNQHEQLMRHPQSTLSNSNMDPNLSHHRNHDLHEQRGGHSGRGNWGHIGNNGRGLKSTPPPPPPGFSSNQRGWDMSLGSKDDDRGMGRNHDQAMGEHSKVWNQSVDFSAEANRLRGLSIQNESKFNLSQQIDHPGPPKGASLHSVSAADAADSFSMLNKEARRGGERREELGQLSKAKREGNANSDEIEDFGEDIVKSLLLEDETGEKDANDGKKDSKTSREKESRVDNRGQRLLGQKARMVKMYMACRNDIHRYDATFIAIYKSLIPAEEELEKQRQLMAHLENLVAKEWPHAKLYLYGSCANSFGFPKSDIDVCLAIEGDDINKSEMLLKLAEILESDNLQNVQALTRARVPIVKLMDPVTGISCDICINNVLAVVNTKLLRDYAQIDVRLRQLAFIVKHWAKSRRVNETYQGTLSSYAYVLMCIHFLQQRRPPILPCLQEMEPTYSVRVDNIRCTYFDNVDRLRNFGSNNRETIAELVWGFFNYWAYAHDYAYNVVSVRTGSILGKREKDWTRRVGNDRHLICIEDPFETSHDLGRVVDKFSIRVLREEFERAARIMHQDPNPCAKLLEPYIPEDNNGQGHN

[2] = biological target: T2, URT1^P618L-GFP (35S-URT1^P618L-GFP) (Arabidopsis thaliana) (UniProt O64642); assay: co-IP; 10xMYC-AGO1 and GFP tagged proteins co-expressed in N. benthamiana leaves with P19; extracts incubated with anti-GFP-protein G-agarose beads for 4 hrs to overnight; blot with anti-MYC
T2 sequence: T1 sequence with P618L

[3] = biological target: T1, URT1-GFP (UTP: RNA uridylyltransferase, 35S-URT1-GFP) (Arabidopsis thaliana); assay: as above
[4] = biological target: T3, 10xMYC-AGO1 (ARGONAUTE1) (Arabidopsis) (UniProt O04379); assay: co-IP; 10xMYC-AGO1 and GFP tagged proteins co-expressed in N. benthamiana leaves with P19; extracts incubated with anti-MYC agarose beads for 4 hrs to overnight; blot with anti-GFP
T3 sequence: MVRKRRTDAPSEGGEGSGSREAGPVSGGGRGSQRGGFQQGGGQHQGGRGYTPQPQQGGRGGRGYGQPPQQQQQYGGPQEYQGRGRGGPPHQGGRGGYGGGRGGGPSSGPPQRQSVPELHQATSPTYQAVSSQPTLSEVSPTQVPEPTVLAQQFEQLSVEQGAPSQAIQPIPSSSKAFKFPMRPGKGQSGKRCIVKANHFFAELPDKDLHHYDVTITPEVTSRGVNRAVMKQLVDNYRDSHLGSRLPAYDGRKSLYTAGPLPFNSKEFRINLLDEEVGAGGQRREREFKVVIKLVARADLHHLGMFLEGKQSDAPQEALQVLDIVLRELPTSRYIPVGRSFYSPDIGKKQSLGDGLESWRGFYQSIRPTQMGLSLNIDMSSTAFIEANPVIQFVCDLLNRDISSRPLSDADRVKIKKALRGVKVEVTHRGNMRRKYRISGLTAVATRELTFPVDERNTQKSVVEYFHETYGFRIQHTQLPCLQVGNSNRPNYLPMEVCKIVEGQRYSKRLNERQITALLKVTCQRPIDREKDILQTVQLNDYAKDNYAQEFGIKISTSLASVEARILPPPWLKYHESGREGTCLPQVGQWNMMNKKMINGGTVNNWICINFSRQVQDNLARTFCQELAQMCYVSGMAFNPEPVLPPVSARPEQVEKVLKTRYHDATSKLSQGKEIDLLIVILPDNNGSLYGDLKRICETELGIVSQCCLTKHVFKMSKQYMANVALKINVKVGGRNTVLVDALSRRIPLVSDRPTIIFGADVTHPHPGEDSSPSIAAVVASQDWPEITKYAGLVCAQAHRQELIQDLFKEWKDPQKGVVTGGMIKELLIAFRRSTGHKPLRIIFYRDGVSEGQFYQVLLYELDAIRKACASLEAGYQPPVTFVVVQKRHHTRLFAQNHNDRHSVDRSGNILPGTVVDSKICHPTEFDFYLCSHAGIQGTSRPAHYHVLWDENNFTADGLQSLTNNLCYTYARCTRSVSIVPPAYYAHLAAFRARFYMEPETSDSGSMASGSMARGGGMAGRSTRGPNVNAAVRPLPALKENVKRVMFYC

B1: 10xMYC-DCL3 (aa1-280) (domain or fragment, UniProt Q9LXW7 1-280)
chain: MHSSLEPEKMEEGGGSNSLKRKFSEIDGDQNLDSVSSPMMTDSNGSYELKVYEVAKNRNIIAVLGTGIDKSEITKRLIKAMGSSDTDKRLIIFLAPTVNLVKQQCCEIRALVNLKVEEYFGAKGVDKWTSQRWDEEFSKHDVLVMTPQILLDVLRSAFLKLEMVCLLIIDECHHTTGNHPYAKLMKEFYHESTSKPKIFGLTASAVIRKGIVSSPSNYAAQVSELERLMDSKIFNPEEREGVEKFATTVKEGPILYNPSPSCSLELKEKLETSHLKFDAS
binding [1]: no binding

B2: 10xMYC-AGO1 (ARGONAUTE1) (protein, UniProt O04379 1-1048)
chain: T3 sequence
binding [1]: binds | binding [2]: binds | binding [3]: binds

Other lines, results leading:

binding [4]: binds
B3: URT1-GFP (UTP: RNA uridylyltransferase, 35S-URT1-GFP) (enzyme, UniProt O64642 1-764)
chain: T1 sequence

binding [4]: binds
B4: URT1^P618L-GFP (35S-URT1^P618L-GFP) (enzyme, UniProt O64642 1-764)
chain: T1 sequence with P618L
